Assay results: the GPR68 mutational scans of Howard et al. (2025)
Scores with a large standard error are left out. Not listed are two conditions whose scores span a narrow range. Read del as a deletion of the residues named and ins as an insertion between two positions. For some of these results: The data file names ogerin without a concentration.

B1: GPR68, Q15743 (parent)
chain: MGNITADNSSMSCTIDHTIHQTLAPVVYVTVLVVGFPANCLSLYFGYLQIKARNELGVYLCNLTVADLFYICSLPFWLQYVLQHDNWSHGDLSCQVCGILLYENIYISVGFLCCISVDRYLAVAHPFRFHQFRTLKAAVGVSVVIWAKELLTSIYFLMHEEVIEDENQHRVCFEHYPIQAWQRAINYYRFLVGFLFPICLLLASYQGILRAVRRSHGTQKSRKDQIQRLVLSTVVIFLACFLPYHVLLLVRSVWEASCDFAKGVFNAYHFSLLLTSFNCVADPVLYCFVSETTHRDLARLRGACLAFLTCSRTGRAREAYPLGAPEASGKSGAQGEEPELLTKLHPAFQTPNSPGSGGFPTGRLA

How the values were obtained:
[1] = variants of: B1; assay: cAMP reporter score (Enrich2 score, wild type = 0); higher = more signal; HEK293T, FACS bins
[2] = variants of: B1; assay: surface expression score (Enrich2 score, wild type = 0); higher = more signal; HEK293T, FACS bins

Variant	cAMP reporter score ([1]; pH 5.5)	cAMP reporter score ([1]; pH 6)	cAMP reporter score ([1]; pH 6, modulator: ogerin)	cAMP reporter score ([1]; pH 6.5, modulator: ogerin)	surface expression score [2]
MGNITADNSSMSCTIDHTIHQTLAPVVYVTVLVVGFPANCLSLYFGYLQIKARNELGVYLCNLTVADLFYICSLPFWLQYVLQHDNWSHGDLSCQVCGILLYENIYISVGFLCCISVDRYLAVAHPFRFHQFRTLKAAVGVSVVIWAKELLTSIYFLMHEEVIEDENQHRVCFEHYPIQAWQRAINYYRFLVGFLFPICLLLASYQGILRAVRRSHGTQKSRKDQIQRLVLSTVVIFLACFLPYHVLLLVRSVWEASCDFAKGVFNAYHFSLLLTSFNCVADPVLYCFVSETTHRDLARLRGACLAFLTCSRTHRAREAYPLGAPEASGKSGAQGEEPELLTKLHPAFQTPNSPGSGGFPTGRLA [G314H]	0.669	-0.525	0.953	0.009	1.45
MGNITADNSSMSCTIDHTIHQTLAPVVYVTVLVVGFPANCLSLYFGYLQIKARNELGVYLCNLTVADLFYICSLPFWLQYVLQHDNWSHGDLSCQVCGILLYENIYISVGFLCCISVDRYLAVAHPFRFHQFRTLKAAVGVSVVIWAKELLTSIYFLMHEEVIEDENQHRVCFEHYPIQAWQRAINYYRFLVGFLFPICLLLASYQGILRAVRRSHGTQKSRKDQIQRLVLSTVVIFLACFLPYHVLLLVRSVWEASCDFAKGVFNAYHFSLLLTSFNCVADPVLYCFVSETTHRDLARLRGACLAFLTCSRTIRAREAYPLGAPEASGKSGAQGEEPELLTKLHPAFQTPNSPGSGGFPTGRLA [G314I]	0.191	0.754	0.932	0.442	0.635
